From ChEMBL document CHEMBL4888484, “Replenishing the malaria drug discovery pipeline: Screening and hit evaluation of the MMV Hit Generation Library 1 (HGL1) against asexual blood stage Plasmodium falciparum ,using a nano luciferase reporter read-out” (2022) come the findings set out here.

SMILES strings stand for the structures. The campaign covered roughly 4,800 compounds. About 410 (8.5%) showed an effect of 50% or more. This is one part of the list.

The assay concerns Plasmodium falciparum. Description: Confirmatory screen in NF54 pLDH assay, in single point, at 2uM, 72h. The assay is classed as functional, Erythrocyte. As to conditions: timepoint 72 hour.
On to `CCCN(CC1CC1)C(=O)C1CCN(Cc2cccc3ccccc23)CC1`, for which the % Inhibition – broadly, the relative decrease from the control value, in per cent – is -23%.
Consider `CS(=O)(=O)N[C@@H](Cc1ccccc1)c1cccs1`, for which the “% Inhibition” value was found to be 5%.
Consider `N#Cc1ccc(CNc2cnc3ccccc3c2)o1`, for which the “% Inhibition” value is listed as -16%.
For `Cn1ccc(NC(=O)C(=O)c2ccc(-c3ccccc3)cc2)n1`, the “% Inhibition” value worked out at 11%.
Take `Cc1cc(CS(=O)(=O)[C@@H](C)C(=O)NCC(C)C)on1`: the “% Inhibition” value is 12%.
Regarding `Cc1nnc2ccc(S(=O)(=O)Nc3cc(F)cc(F)c3)cn12`, the “% Inhibition” value was 0%.
The result for `O=C1CN(Cc2ccc(F)cc2)C(=O)N1[C@@H]1C[C@H]2CC[C@@H]1O2` reads 12%; that for `CCC(C)c1ccc(NC(=O)N2CC(c3ccccc3)C(c3ccc(Cl)cc3)=N2)cc1` (stereo not drawn), 11%; that for `O[C@@H](CNc1cc(-c2ccccc2)nc2ncnn12)COCC1CC1`, 3%.
With `O=C1C(c2ccccc2)=NOC12CCCCC2`, the “% Inhibition” value is -4%.
The result for `CC1=CCN(C(=O)Nc2nccs2)CC1` reads 5%; that for `Cc1nc2ncnn2c(N2CCc3nc(N)sc3C2)c1C`, -4%; that for `CCN(CC)c1ncnc(N(C)Cc2ccccc2)c1N`, 9%.
In the case of `CN(C(=O)c1ccccc1Br)C(C)(C)C`, the “% Inhibition” value is recorded as -5%.
`CCN(CC(C)(C)O)C(=O)C1CCCCCC1`: the “% Inhibition” value is reported as -8%.
The result for `CCn1cc(Cl)c(-c2nnc(-c3cccs3)o2)n1` reads 0%; that for `O=C1[C@@H]2CCCN2c2ccc(S(=O)(=O)N3CCOCC3)cc2N1Cc1cccc(C(F)(F)F)c1`, -20%; that for `Cc1cc(C)c(S(=O)(=O)n2ccc(-c3cccc(OCc4ccc(Cl)cc4Cl)c3)n2)c(C)c1`, -7%.
`[2H]C1([2H])NC([2H])([2H])C([2H])([2H])N(S(=O)(=O)c2ccc(OCC)c(-c3nc(=O)c4c([nH]3)c(CCC)nn4C)c2)C1([2H])[2H]`: the “% Inhibition” value is 0%.
As for `COc1ccccc1Cn1cnc2c1c(=O)n(C1CCCCC1)c(=O)n2-c1ccccc1Cl`, the “% Inhibition” value is given as 90%.
As for `O=C1N(c2ccccc2)CN(C2CCCCC2)CN1c1nc(-c2ccccc2)cs1`, the “% Inhibition” value was 0%.
On to `COCCO[C@H]1CCOC2(CCN(C(=O)Cc3cccc(C)c3)CC2)C1`, for which the “% Inhibition” value is recorded as 14%.
The result for `Cc1cc2nccc([C@H](C)Oc3ccc(-c4ccccc4)c(F)c3)n2n1` reads 11%; that for `Cc1cccc(N2CCN(c3ncc4c(=O)n(-c5ccc6c(c5)OCO6)c(=O)[nH]c4n3)CC2)c1`, -1%; that for `CCOc1ccc(C2C(C(=O)O)CCC(=O)N2C2CCCCC2)cc1` (stereo not drawn), 10%.
Consider `Cc1ccc(S(=O)(=O)N2CCC[C@H](C(=O)NCc3cccc(NC(=O)N4CCCC4)c3)C2)s1`, for which the “% Inhibition” value amounted to 8%.
As to `O=c1cc2c(nn1Cc1ccccc1Cl)-c1ccccc1CC2`, the “% Inhibition” value was 0%.
With `COc1cccc(CNC(=O)CCC(=O)N(c2ccccc2)c2ccccc2)c1`, the “% Inhibition” value was 13%.
As for `Cc1c(Br)c(C(F)F)nn1CC(=O)N[C@@H](C)C(C)(C)C`, the “% Inhibition” value is recorded as -11%.
For `COc1cccc(NC(=O)c2ccccc2C(=O)OCCN2CCOCC2)c1`, the “% Inhibition” value worked out at 15%.
Regarding `CC(=O)c1ccc(NC(=O)c2cnc(-c3ccc4c(c3)CCO4)s2)cc1`, the “% Inhibition” value worked out at 11%.
On to `Cc1ccccc1N1CCN(C(=O)c2csc(C(=O)NC3CCCC3)n2)CC1`, for which the “% Inhibition” value is -7%.
Regarding `O=C(N[C@H]1C[C@H]2C(=O)Nc3ccccc3C(=O)N2C1)c1cccnc1`, the “% Inhibition” value turned out to be 1%.
With `COc1cccc(CNCc2ccccc2)c1OCc1ccccc1Cl`, the “% Inhibition” value amounted to 2%.
`CC[C@H]1Cn2c(C(=O)NCCN3CCCC3)cc3cccc(c32)O1`: the “% Inhibition” value was -10%.
Consider `COc1ccc(-n2nc(-c3ccc(C)cc3)c3cnc4c(F)cccc4c32)cc1`, for which the “% Inhibition” value was determined as 8%.
`CCCCN(CC)CCNC(=O)C1CCN(C2=NS(=O)(=O)C(c3ccc(OC)cc3)=C2C)CC1`: the “% Inhibition” value amounted to 39%.
`CON(C)C[C@H](O)Cn1cc(Nc2ncnc3cc(F)ccc23)cn1`: the “% Inhibition” value was determined as 5%.
The result for `CC1CCCCC1N(C)C(=O)c1cc2ccccc2c(=O)[nH]1` (stereo not drawn) reads -14%.
As for `O=C(NC1CCCC1)c1nc(C(=O)N2CCN(c3cccc(Cl)c3)CC2)cs1`, the “% Inhibition” value is -9%.
On to `Fc1cccc(Cl)c1Cn1ccc(Nc2nnc(Cn3cc(Cl)cn3)s2)n1`, for which the “% Inhibition” value is recorded as -8%.
Take `Cc1ccc(S(=O)(=O)c2c(NS(=O)(=O)c3ccc(F)cc3)n(CCc3ccccc3)c3nc4ccccc4nc23)cc1`: the “% Inhibition” value was found to be 103%.
For the compound `O=C1CCC(C(=O)NCC2CCCOC2)(c2ccccc2)CN1` (stereo not drawn), the “% Inhibition” value is reported as -16%.
On to `Cc1cc(C)n2c(-c3cccnc3)nnc2n1`, for which the “% Inhibition” value is reported as 2%.
For `COC(=O)[C@@](c1cc(Cl)c(O)c(Cl)c1)(N1CCOCC1)C(F)(F)F`, the “% Inhibition” value is 14%.
In the case of `COc1ccc(NC(=O)C2(N(Cc3ccccc3)C(=O)Cn3nnc4ccccc43)CCCCC2)cc1`, the “% Inhibition” value is listed as 12%.
In the case of `COc1cccc(CC(=O)N2CCc3nc(N4CCC(C)CC4)nc(Oc4ccccc4OC)c3C2)c1`, the “% Inhibition” value is reported as 61%.
As for `Cn1ncc(C(=O)CC#N)c1C(F)(F)F`, the “% Inhibition” value was -18%.
The result for `CCOC(=O)C1CN(S(=O)(=O)c2ccccc2)C1` reads -10%; that for `COc1ccccc1C1CC1c1nc(CC(=O)NC2CCCC2)no1` (stereo not drawn), -5%.
As for `O=C1CC(c2cccc(NC(=O)CCc3ccccn3)c2)CC(=O)N1`, the “% Inhibition” value came out at 12%.
`COc1ccccc1[C@H]1CCN(S(=O)(=O)c2ccccc2)C1`: the “% Inhibition” value was -5%.
The result for `CCOc1cc(C(c2c(C)n(C)n(-c3ccccc3)c2=O)c2c(C)n(C)n(-c3ccccc3)c2=O)ccc1OCc1ccccc1` reads 38%; that for `COCC[C@@H](CO)NC(=O)NCc1cc2cc(F)ccc2s1`, 4%; that for `NS(=O)(=O)c1cc(C(=O)N2CCc3ccccc3C2)cs1`, 13%.
The result for `O=C(Cn1c(Cc2ccc(Cl)cc2)nc2ccccc21)Nc1ccccc1` reads 9%; that for `Cn1c(-c2ccc(Br)cc2)cn2cc(-c3ccc(Cl)cc3)nc12`, -1%.
On to `O=C(Nc1ccccc1Br)c1cc(-c2ccc3c(c2)CCO3)no1`, for which the “% Inhibition” value is 7%.
For `CCCCCC1CCC(c2ccc(-c3ccc(CC)cn3)cc2F)CC1` (stereo not drawn), the “% Inhibition” value is reported as 7%.
With `O=C(Nc1ccc(C2(c3ccc(NC(=O)c4ccc(F)cc4)cc3)c3ccccc3C(=O)c3ccccc32)cc1)c1ccc(F)cc1`, the “% Inhibition” value is 31%.
As to `COc1ccc2c(c1)CCc1c[nH]nc1-2`, the “% Inhibition” value came to 0%.
With `Cc1nnc([C@@H]2COCCN2Cc2csc(C)c2)o1`, the “% Inhibition” value amounted to 2%.
As for `CC(C)(C)c1noc(OCc2cccc(C#N)c2)n1`, the “% Inhibition” value is given as 14%.
